According to PubChem BioAssay AID1240 (Sanford-Burnham Center for Chemical Genomics, 2008):
About 800 (1.6%) of roughly 50,000 compounds showed an effect of 50% or more. The list shows a part of the results.

The molecules below were run against Bcl-2-like protein 10 (Homo sapiens) (UniProt Q9HD36) (assay: Phenotype converters, Bcl-B/TR3 peptide binding displacement, primary biochemical FP (AID 1240;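 further: 0% = Bcl-B with tracer peptide and DMSO and 100% = tracer peptide lacking Bcl-B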)). Conditions: GST-Bcl-B / FITC-TR3 peptide fluorescence polarization; stronger effect = higher value; compound at 3.75 mg/L.
UniProt Q9HD36, sequence (Q9HD36 whole entry, looked up): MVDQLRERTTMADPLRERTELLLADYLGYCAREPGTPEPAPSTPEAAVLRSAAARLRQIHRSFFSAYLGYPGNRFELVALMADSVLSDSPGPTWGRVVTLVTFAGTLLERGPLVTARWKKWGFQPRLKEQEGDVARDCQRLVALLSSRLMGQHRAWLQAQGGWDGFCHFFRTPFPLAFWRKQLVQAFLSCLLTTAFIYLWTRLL
In the case of `O=C(N/N=C\c1ccc(OC(=O)c2cccc3ccccc23)cc1)c1ccc(Br)cc1`, the displacement is reported as 7.8%.
With `CCCC(=O)N1CCN(c2ccc(C(C)=O)cc2F)CC1` the displacement was -7.8%.
`Cc1ccc(C(=O)Nc2cccc(C(=O)O)c2)cc1S(=O)(=O)NCc1ccccc1` showed a displacement of -5.9%.
`COc1cc(C(=O)NCCOc2cc(C)ccc2C(C)C)cc(OC)c1OC` was tested, and the displacement was -14.3%.
With `CC(C)(C)C1(O)CC(C(F)(F)F)=NN1C(=O)COc1ccccc1` (stereo unspecified) the displacement was -7.4%.
`CC(=O)Oc1ccc2c(oc(=O)c3ccccc32)c1C` gave a displacement of -5.1%.
For `CCC(=O)Oc1cc2oc(CC)c(-c3nc(C)cs3)c(=O)c2cc1CC`, the displacement was 6.6%.
`CC1=NN(c2cccc(Cl)c2)C(=O)/C1=C/C=C/c1cccc([N+](=O)[O-])c1` was tested, and the displacement was 13.6%.
For `COc1ccc(Br)cc1/C=C/C(=O)Nc1cccc(S(N)(=O)=O)c1`, the displacement was 8.1%.
For `CCOC(=O)CN1CC(O)=C(C=NCc2ccccc2)C1=O`, the displacement was 2.8%.
In the case of `COc1ccccc1OCCOc1ccc(Br)cc1/C=C1/SC(=S)N(C)C1=O`, the displacement is reported as 14.4%.
With `COc1ccc(Cl)cc1N(CC(=O)N1CCN(c2ccccc2)CC1)S(=O)(=O)c1ccccc1` the displacement was -3.8%.
In the case of `O=C(Nc1cccc(-c2cn3ccccc3n2)c1)c1cccc(Br)c1`, the displacement is reported as 11.7%.
`N#CCCn1cc(/C=C2/NC(=S)N(c3ccc(-c4ccccc4)cc3)C2=O)c(-c2ccccc2)n1` was tested, and the displacement was -42%.
Work on `C=CCOc1ccc(Cl)cc1/C=C1/C(=N)N2N=C(CCC)SC2=NC1=O` yielded a displacement of -25.3%.
For `O=C(CCc1ccccc1)NCc1ccc(F)cc1`, the displacement was -1.3%.
`O=C(O)CN(Cc1ccco1)S(=O)(=O)c1ccccc1` showed a displacement of -2.9%.
In the case of `Cc1ccc(C(=O)Nc2ccccc2C(=O)Nc2ccccc2C(=O)O)cc1`, the displacement is reported as 11.6%.
`CC(=O)NC1=NC(=O)/C(=C\c2ccc(C(C)(C)C)cc2)S1` gave a displacement of 11.4%.
With `COc1ccc(C2NC(=S)NC(C)=C2C(=O)Nc2cccc(Cl)c2)cc1` (stereo unspecified) the displacement was 20.9%.
`O=[N+]([O-])c1cccc(S(=O)(=O)/N=C(/Nc2ccccc2)c2ccccc2)c1` showed a displacement of -3.4%.
For `Cc1cc(C)n(C(=O)COc2ccc(Oc3ccccc3)cc2)n1`, the displacement was 0%.
In the case of `COc1ccc(-c2cc(C(=O)Nc3ccccn3)c3ccccc3n2)cc1OC`, the displacement is reported as -3.9%.
`O=C(O)CN1C(=O)/C(=C\c2ccccc2OCc2ccccc2)SC1=S` gave a displacement of 3%.
In the case of `O=c1cc(-c2ccccc2)nc2cc(-c3cccs3)[nH]n12`, the displacement is reported as 10.3%.
Molecule `Cc1cn(S(=O)(=O)c2cc([N+](=O)[O-])ccc2C)cn1` has a displacement of 6.9%.
In the case of `CC(C)=C(NC(=O)c1ccccc1)C(=O)Nc1cccc(Br)c1`, the displacement is reported as 0.4%.
For `Nc1ccc2nc(SCC(=O)NC(c3ccccc3)c3ccccc3)sc2c1`, the displacement was -21.4%.
`COC(=O)c1ccc(C2CC(=O)NC(C)=C2C(=O)OCc2ccccc2)cc1` (stereo unspecified) was tested, and the displacement was -8.8%.
For `COc1cc(Br)cc(/C=C2\C(=O)NC(=O)N(c3cc(C)cc(C)c3)C2=O)c1OC`, the displacement was -9.1%.
For `O=C(c1ccc(Cl)cc1)c1ccc2c(c1)CCCO2`, the displacement was 1.7%.
Work on `Cc1ccc(C(=O)/C(=C/c2ccc(-c3cccc([N+](=O)[O-])c3)o2)c2nc3ccccc3o2)cc1` yielded a displacement of 13.2%.
With `Fc1cccc(-c2nc3ccccc3[nH]2)c1` the displacement was -0.3%.
With `COc1ccc(C(=O)Nc2sc3c(c2C(N)=O)CCC(C(C)(C)C)C3)cc1` (stereo unspecified) the displacement was 5.9%.
`O=C1C2C3C=CC(C3)C2C(=O)N1/N=C/c1cc(Br)c(O)cc1O` (stereo unspecified) gave a displacement of 13.1%.
For `CCCCc1ccc(-c2nc(-c3cccnc3)no2)cc1`, the displacement was -8.8%.
With `Cc1ccc(N2C(=O)CSC2c2cccc([N+](=O)[O-])c2)cc1` (stereo unspecified) the displacement was -7.2%.
`Cc1cc(NC(=O)c2ccc(Br)o2)ccc1NC(=O)c1ccccc1` was tested, and the displacement was 7.8%.
Molecule `COc1ccc(Cc2noc(-c3ccc(OC)c(OC)c3)n2)cc1` has a displacement of 11.6%.
`Cc1cc(/C=C2/SC(=O)NC2=O)c(C)n1-c1cccc(Cl)c1` gave a displacement of 18.6%.
Work on `COc1cc(OC)c(OC)cc1CN1CCN(Cc2ccncc2)CC1` yielded a displacement of 1.1%.
`Cc1ccc(NC(=O)/C=C/c2cccc([N+](=O)[O-])c2)c(Br)c1` was tested, and the displacement was 13.6%.
Work on `O=P(CO)(c1ccccc1)c1ccccc1` yielded a displacement of 14.4%.
`COC(=O)COc1ccc(/C=C2\C(=O)NC(=O)N(c3ccc(C)cc3)C2=O)cc1OC` was tested, and the displacement was -15.9%.
In the case of `COc1cc(/C=C2\C(=O)N(c3ccc(S(N)(=O)=O)cc3)N=C2C)cc(Br)c1OCc1ccccc1`, the displacement is reported as 10%.
In the case of `COC(=O)C(C(c1ccccc1)c1cc2ccccc2[nH]1)[N+](=O)[O-]` (stereo unspecified), the displacement is reported as 3.4%.
Work on `CC1=C(C#N)C(c2cccc(Cl)c2Cl)C2=C(CC(C)(C)CC2=O)N1` (stereo unspecified) yielded a displacement of -10.1%.
Work on `O=C(Nc1ccc(F)cc1F)c1sc2ccccc2c1Cl` yielded a displacement of 21.9%.
In the case of `CC1CCc2c(nc3ccccc3c2C(=O)O)C1` (stereo unspecified), the displacement is reported as -14.7%.
`CC1=N/C(=C\c2ccc(OC(F)F)cc2)C(=O)O1` showed a displacement of 5.2%.
Work on `Cn1c(/C=C/c2ccc(C(=O)c3ccccc3)o2)nc2ccccc21` yielded a displacement of 29.1%.
In the case of `Cc1ccc(C2N(c3ccccc3)C(=O)N3CCCN23)cc1` (stereo unspecified), the displacement is reported as 0.8%.
`CC(C)(C)C(=O)/C=C(O)\C(O)=C/C(=O)C(C)(C)C` showed a displacement of 2.6%.
In the case of `COc1cccc(/C=C2/C=C(c3ccc(Br)cc3)OC2=O)c1OC(C)=O`, the displacement is reported as 27.1%.
In the case of `CCOc1ccc(N2C(=O)CC(NCc3cccnc3)C2=O)cc1` (stereo unspecified), the displacement is reported as -6.7%.
For `CC1C(O)C(C)C(c2ccccc2)N(C)C1c1ccccc1` (stereo unspecified), the displacement was -2.6%.
For `O=C1C2CC=C(Cl)CC2C(=O)N1CN(Cc1ccco1)CN1C(=O)C2CC=C(Cl)CC2C1=O` (stereo unspecified), the displacement was -0.2%.
Work on `Cc1ccc(-c2ccccc2)n1-c1ccc(C(=O)NN)cc1` yielded a displacement of 12.3%.
`O=C(Nc1cc([N+](=O)[O-])ccc1Cl)C1CC2CCC1C2` (stereo unspecified) gave a displacement of 8.8%.
With `CS(=O)(=O)N1CCN(S(=O)(=O)c2ccc(Cl)cc2)CC1` the displacement was -13.4%.
With `CCc1ccccc1NCC(O)Cn1c2ccccc2c2ccccc21` (stereo unspecified) the displacement was 3%.
Molecule `CCOC(=O)c1c(NC(=O)c2ccc([N+](=O)[O-])cc2)sc2c1CCC2` has a displacement of 9.1%.
Work on `CCOC(=O)c1c(NC(=O)C(Cl)(Cl)Cl)sc2c1CCC2` yielded a displacement of -3.5%.
In the case of `C(=N\N=C(\c1ccccc1)C12CN3CN(CN(C3)C1)C2)/c1cccnc1`, the displacement is reported as -0.1%.
`COCCCNC(=O)c1cccc([N+](=O)[O-])c1C` showed a displacement of -11.3%.
In the case of `Cc1ccc(N2C(=O)CC(NCCc3cccc(Cl)c3)C2=O)cc1` (stereo unspecified), the displacement is reported as 41.2%.
Molecule `C=CCN1C(=O)/C(=C\c2ccc(N(CC)CC)cc2O)C(=O)NC1=S` has a displacement of 22.6%.
`COc1ccc(CN2CCN(Cc3cccc([N+](=O)[O-])c3)CC2)c2ccccc12` showed a displacement of -34.7%.
`CCCCOC(=O)c1cccc(C(=O)O)n1` showed a displacement of 10.5%.
Molecule `O=C(NCCCn1ccnc1)c1ccc(Cl)cc1[N+](=O)[O-]` has a displacement of -8%.
Work on `O=C1CC(N2CCN(c3ccccc3)CC2)C(=O)N1CCc1ccccc1` (stereo unspecified) yielded a displacement of 11.1%.
`COc1ccc(C2SCC(=O)N2Cc2ccco2)c(OC)c1` (stereo unspecified) gave a displacement of -9%.
For `O=C(/C=C/c1cccc(N2C(=O)c3ccccc3C2=O)c1)c1cccc(N2C(=O)c3ccccc3C2=O)c1`, the displacement was -0.1%.
In the case of `O=[N+]([O-])c1cccc(S(=O)(=O)NCc2ccncc2)c1`, the displacement is reported as -3.8%.
In the case of `Cc1ccc(C(=O)Nc2sc3c(c2C(=O)N2CCCCCC2)CCC(C)C3)cc1` (stereo unspecified), the displacement is reported as 23.4%.
For `CCOC(=O)C1=C(C)N=c2s/c(=C\c3cc(Br)ccc3OC(C)=O)c(=O)n2C1c1ccccc1` (stereo unspecified), the displacement was 3%.
`Cc1cccc(OCCOc2ccc(/C=C3/SC(=S)N(C)C3=O)cc2)c1` showed a displacement of 6.2%.
With `Cc1ccc(/C=C2\C(=O)NC(=O)N(Cc3ccccc3)C2=O)cc1` the displacement was -3%.
With `O=c1[nH]c(=O)n(-c2cccc(Cl)c2)c(O)c1C=NCc1ccc(F)cc1` the displacement was 35.2%.
With `O=C(CCN1CCCCC1)N/N=C/c1ccc(Br)cc1` the displacement was -9.6%.
With `O=C(O)CCCCCN1C(=O)C(=O)/C(=C(/O)c2ccccc2)C1c1cccc(F)c1` (stereo unspecified) the displacement was -11.9%.
Molecule `CC(=O)Oc1ccc2c3c(c(=O)oc2c1C)CCCC3` has a displacement of -6.4%.
`C=CCOc1ccc2oc(=O)cc(C)c2c1` gave a displacement of 8.5%.
`CN(C)c1ccc(NC(=O)C(=O)NCCC2=CCCCC2)cc1` showed a displacement of -9.7%.
In the case of `COc1ccc(NC2=CC(c3ccccc3F)N(c3ccc(OC)cc3)C2=O)cc1` (stereo unspecified), the displacement is reported as 1.9%.
For `N#C/C(=C/c1ccsc1)C(=O)Nc1cccc(Br)c1`, the displacement was -6.2%.
`Cc1ccc(C(C)C)c(OCC(=O)Nc2ccc(O)c(-c3nc4ccccc4o3)c2)c1` was tested, and the displacement was 1.8%.
`COc1ccccc1NC(=O)C(=O)NCCc1ccc(OC)c(OC)c1` was tested, and the displacement was 11.1%.
`COc1cccc2cc(C(=O)Nc3cccc(C(C)=O)c3)c(=O)oc12` gave a displacement of 5.7%.
`N#Cc1c(-c2ccccc2)cc(-c2ccccc2Cl)c(C#N)c1N` gave a displacement of -14.1%.
`CCOc1cc(/C=N\NC(=O)CNc2ccccc2C)cc(I)c1O` was tested, and the displacement was 6.9%.
In the case of `O=C(NCc1ccccn1)c1c(O)c2ccccc2[nH]c1=O`, the displacement is reported as 3.2%.
Work on `CN(C)c1cc(N/N=C/C=C/c2ccccc2)nc(N(C)C)n1` yielded a displacement of 2.5%.
`CCOc1c(Br)cc(/C=C2N=C(/C=C/c3ccccc3)OC/2=O)cc1OC` showed a displacement of 105%.
In the case of `O=C(c1ccccc1F)N1CCN(c2cc(N3CCCC3)c(F)cc2[N+](=O)[O-])CC1`, the displacement is reported as -3.5%.
Work on `CCOc1ccc(NC(=S)NC(NC(=O)c2cc(OC)c(OC)c(OC)c2)C(Cl)(Cl)Cl)cc1` (stereo unspecified) yielded a displacement of 13.2%.
`O=C(O)C(NS(=O)(=O)c1ccc(Br)cc1)C(O)c1ccccc1` (stereo unspecified) was tested, and the displacement was 6.5%.
`CCOc1ccc(N(CC(=O)O)S(=O)(=O)c2ccc(SC)cc2)cc1` showed a displacement of 11.8%.
`O=C(Nc1ccc(Cl)c(F)c1)c1cnn2c1NC(c1ccc(Br)cc1)CC2C(F)(F)F` (stereo unspecified) was tested, and the displacement was 9.5%.
`Cc1c(N2C(=O)/C(=C/c3ccc(F)cc3)SC2=S)c(=O)n(-c2ccccc2)n1C` was tested, and the displacement was 10.8%.
Molecule `CCCCOc1c([N+](=O)[O-])cc([N+](=O)[O-])c2nsnc12` has a displacement of -3.8%.
`COC(=O)c1cc(Br)c(C)c(NC(C)=O)c1[N+](=O)[O-]` gave a displacement of 13.8%.
`Oc1ccc2ccccc2c1/C=N/N1CCN(Cc2cccc3ccccc23)CC1` showed a displacement of 0.4%.
With `CCN(CC)/C(N)=N/c1nc(C)cc(C)n1` the displacement was 6.3%.
Work on `Cc1ccc(/C=C2/SC(=S)N(CC(=O)Nc3ncc(Cc4ccc(C)cc4)s3)C2=O)cc1` yielded a displacement of 19.4%.
Work on `O=C(COc1cccc2ccccc12)NCCCN1CCOCC1` yielded a displacement of -17.9%.
